Data: PubChem BioAssay AID504333 (National Center for Advancing Translational Sciences (NCATS), 2011)
Hit rate of the full screen: of about 360,000 compounds, about 16,000 (4.4%) were called active. This list was built around the results that the source calls inconclusive (neither active nor inactive); the mix of calls is not that of the screen. Calls follow the shape of the dose curve; as a rule, active = well fitted inhibition curve with a large enough effect; inconclusive = small, poorly fitted or top-dose-only effect; inactive = no such curve, though single readings can be large or run the other way. A potency beside an inconclusive call is a rough fit, not a confirmed value.

The compounds below were run against Bromodomain adjacent to zinc finger domain protein 2B (Homo sapiens) (UniProt Q9UIF8) (assay: qHTS Assay for Inhibitors of BAZ2B). Details: AlphaScreen BAZ2B-H3K14Ac peptide displacement; activity change, negative = inhibition: at 114 µM (top of the series) unless noted.
Procedure, shortened: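 Protein-peptide AlphaScreen: BAZ2B 50 nM, b-H3K14Ac 50 nM, 1x PBS pH 7.4 + 0.01% Tween-20. Preincubation 30 min RT; cpd 30 min RT (top 110 uM); beads 20 min RT, light-protected.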
% is scaled to controls: 0 for no effect and ±100 for the full control effect; potency is read from the fitted curve at half-maximal effect; tags tell the direction and shape of the fitted curve.
Also: nearly all actives have a fitted effect of over 60% in size.

Chain of UniProt Q9UIF8 (Q9UIF8 whole entry, looked up, the tested form may be a part): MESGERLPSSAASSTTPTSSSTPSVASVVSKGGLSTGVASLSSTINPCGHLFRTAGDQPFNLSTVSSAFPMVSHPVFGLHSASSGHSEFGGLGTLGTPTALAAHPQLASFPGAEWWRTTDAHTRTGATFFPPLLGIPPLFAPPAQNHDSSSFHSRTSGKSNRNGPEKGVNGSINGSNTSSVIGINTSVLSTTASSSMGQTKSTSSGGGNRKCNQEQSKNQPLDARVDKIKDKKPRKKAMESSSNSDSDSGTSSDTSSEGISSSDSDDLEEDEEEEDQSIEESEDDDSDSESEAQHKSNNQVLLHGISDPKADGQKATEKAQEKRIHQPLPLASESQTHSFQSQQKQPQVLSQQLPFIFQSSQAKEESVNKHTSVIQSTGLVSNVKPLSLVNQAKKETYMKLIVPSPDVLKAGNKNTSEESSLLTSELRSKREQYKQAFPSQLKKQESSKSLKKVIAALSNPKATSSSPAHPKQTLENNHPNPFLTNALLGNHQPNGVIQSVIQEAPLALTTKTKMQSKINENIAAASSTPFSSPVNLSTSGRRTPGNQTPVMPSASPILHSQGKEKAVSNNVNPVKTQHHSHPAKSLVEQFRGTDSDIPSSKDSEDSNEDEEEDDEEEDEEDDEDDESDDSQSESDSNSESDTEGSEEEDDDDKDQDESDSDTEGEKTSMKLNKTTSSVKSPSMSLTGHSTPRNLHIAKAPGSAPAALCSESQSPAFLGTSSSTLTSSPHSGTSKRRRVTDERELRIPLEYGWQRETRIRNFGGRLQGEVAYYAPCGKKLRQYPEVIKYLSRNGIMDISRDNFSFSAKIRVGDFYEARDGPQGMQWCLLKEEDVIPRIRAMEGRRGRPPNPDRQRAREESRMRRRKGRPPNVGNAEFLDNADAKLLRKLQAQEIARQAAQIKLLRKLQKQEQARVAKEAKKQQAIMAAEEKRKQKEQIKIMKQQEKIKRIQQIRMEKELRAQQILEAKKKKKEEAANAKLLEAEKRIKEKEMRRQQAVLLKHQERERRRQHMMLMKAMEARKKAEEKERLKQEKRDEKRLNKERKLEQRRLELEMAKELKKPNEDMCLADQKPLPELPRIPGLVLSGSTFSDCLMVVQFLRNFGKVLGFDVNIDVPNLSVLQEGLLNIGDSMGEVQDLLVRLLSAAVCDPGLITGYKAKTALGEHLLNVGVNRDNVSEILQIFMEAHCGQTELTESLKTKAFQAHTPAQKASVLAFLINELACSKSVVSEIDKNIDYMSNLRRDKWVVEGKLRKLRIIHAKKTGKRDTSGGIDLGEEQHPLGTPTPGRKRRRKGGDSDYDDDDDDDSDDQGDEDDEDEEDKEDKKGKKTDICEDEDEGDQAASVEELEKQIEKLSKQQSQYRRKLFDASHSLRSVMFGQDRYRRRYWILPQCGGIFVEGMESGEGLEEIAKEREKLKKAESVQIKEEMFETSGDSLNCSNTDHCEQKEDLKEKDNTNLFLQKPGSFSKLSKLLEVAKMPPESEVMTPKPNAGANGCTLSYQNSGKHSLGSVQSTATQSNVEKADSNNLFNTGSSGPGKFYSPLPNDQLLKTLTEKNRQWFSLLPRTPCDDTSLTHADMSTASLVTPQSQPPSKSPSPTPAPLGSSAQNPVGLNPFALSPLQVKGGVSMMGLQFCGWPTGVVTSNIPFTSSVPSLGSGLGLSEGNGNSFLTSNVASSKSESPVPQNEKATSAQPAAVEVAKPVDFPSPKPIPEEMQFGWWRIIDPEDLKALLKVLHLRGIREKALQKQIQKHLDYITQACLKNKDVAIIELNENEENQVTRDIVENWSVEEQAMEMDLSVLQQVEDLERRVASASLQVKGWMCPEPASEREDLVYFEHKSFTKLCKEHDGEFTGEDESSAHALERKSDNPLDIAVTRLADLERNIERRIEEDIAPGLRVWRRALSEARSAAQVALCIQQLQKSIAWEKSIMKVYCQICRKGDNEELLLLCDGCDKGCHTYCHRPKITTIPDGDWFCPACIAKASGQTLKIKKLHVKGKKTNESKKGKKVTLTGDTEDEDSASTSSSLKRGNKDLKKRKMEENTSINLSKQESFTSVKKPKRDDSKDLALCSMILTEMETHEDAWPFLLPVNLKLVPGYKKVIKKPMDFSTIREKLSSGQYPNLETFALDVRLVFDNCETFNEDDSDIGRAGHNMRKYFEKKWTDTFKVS

Compound	Potency	activity change, negative = inhibition
Cc1ccc(SCc2cn3c(C)csc3n2)cc1	active: 56.2 µM	–
CCOC(=O)Cc1csc(NC(=O)c2ccncc2)n1	–	inactive: -6.5%
CC1(C)Cc2cccc(OCC(=O)OCC(=O)Nc3ccccc3)c2O1	–	inactive: 8.37%
CCn1c2ccccc2c2cc(NC(=O)c3cc(OC)c(OC)c(OC)c3)ccc21	–	inactive: -26.4%
CCOC(=O)CNc1c(-c2ccc(O)cc2)nc2ccc(Cl)cn12	inconclusive: 50.1 µM [inhibitor, partial curve]	–
Cc1ccc(S(=O)(=O)N(C)C)cc1NC(=O)CSc1nnc(C2CC2)n1C1CC1	–	inactive: -4%
CCOC(=O)C1=C(c2ccccc2)NC(N)=NC1c1ccc(OCc2ccc(C(=O)OC)cc2)cc1 (configuration not stated)	inconclusive: 25.1 µM [inhibitor, full curve]	–
O=C(Nc1nc(-c2cccs2)cs1)c1cccc(S(=O)(=O)N2CCCCC2)c1	inconclusive: 39.8 µM [inhibitor, single point]	–
COc1cccc(/C=C2/Sc3ccc(C(=O)NCCCN4CCCC4)cc3NC2=O)c1	inconclusive: 35.5 µM [inhibitor, partial curve]	–
Cc1[nH]c2ccccc2c1C(=O)CN1CCN(C/C=C/c2ccccc2)CC1	inconclusive: 89.1 µM [inhibitor, single point]	–
COc1ccc(/C=N/NC(=O)CCn2cnc(-c3ccccc3)c2-c2ccccc2)cc1	active: 25.1 µM	–
O=C(/C=C/c1cccc(Cl)c1)c1ccc([N+](=O)[O-])o1	active: 10 µM	–
Cc1cc(NC(=O)c2ccc3c(c2)C(=O)N(c2cccc(C)c2C)C3=O)no1	–	inactive: -0.481%
Nc1c(NCCN2CCCCC2)c2ccccc2oc1=O	inconclusive: 89.1 µM [inhibitor, partial curve]	–
COC(=O)/C=C/C(=O)Nc1ccc(O)c(Cl)c1	inconclusive: 79.4 µM [inhibitor, single point]	–
COc1ccc(NC(=O)c2c3c(nc4ccccc24)CCC3)cc1S(=O)(=O)N1CCOCC1	active: 50.1 µM	–
O=C(O)CCC(=O)NNc1ncnc2ccccc12	inconclusive: 79.4 µM [inhibitor, single point]	–
CCOc1ncccc1C(=O)NNC(=O)c1ccc(NS(=O)(=O)c2cccs2)cc1	–	inactive: 1.72%
O=C(CCCN1C(=O)/C(=C/c2cccs2)SC1=S)NNC(=O)c1cccnc1	inconclusive: 63.1 µM [inhibitor, partial curve, poor fit]	–
O=C(Nc1cc(Sc2nc3ccccc3s2)cc([N+](=O)[O-])c1)c1cccc(F)c1F	inconclusive: 70.8 µM [inhibitor, single point]	–
CCNc1ccc(N=Nc2c(C)n(C)n(-c3ccccc3)c2=O)cc1	active: 31.6 µM	–
COc1cccc(CN(C)CC(=O)NC(=O)NCc2ccco2)c1	active: 50.1 µM	–
COc1ccc(-c2csc(NC(=O)C3CSC4(C)CCC(=O)N34)n2)c(OC)c1 (configuration not stated)	inconclusive: 89.1 µM [inhibitor, single point]	–
Cc1nc(N)sc1-c1csc(Nc2ccc(S(N)(=O)=O)cc2)n1	active: 50.1 µM	–

Compound	Potency	activity change, negative = inhibition
CCS(=O)(=O)N1CCc2cc(C(=O)N3CCN(c4cccc(C(F)(F)F)c4)CC3)ccc21	inconclusive: 50.1 µM [inhibitor, partial curve]	–
CCc1ccc(OC(=O)CSc2nnc(-c3ccc4c(c3)OCO4)o2)cc1	–	inactive: -1.2%
COc1cccc(NC(=O)c2ccc(-c3ccccc3[N+](=O)[O-])o2)c1	inconclusive: 70.8 µM [inhibitor, single point]	–
COc1ccc(C2CC(c3cccs3)=NN2c2nc(-c3ccccc3)cs2)cc1OC (configuration not stated)	–	inactive: -4.42%
Cn1cc(C(c2ccccc2OCC(=O)O)c2cn(C)c3ccccc23)c2ccccc21	active: 50.1 µM	–
CCC(C)(C)NC(=O)CCCSc1nc2ccccc2s1	inconclusive: 89.1 µM [inhibitor, single point]	–
CSCCC(NC(=O)c1cccc([N+](=O)[O-])c1)c1nc2ccccc2[nH]1 (configuration not stated)	inconclusive: 70.8 µM [inhibitor, single point]	–
CCOC(=O)c1c(C)[nH]c(CCC(=O)NCCCN2CCN(c3cccc(Cl)c3)CC2)c1C	inconclusive: 89.1 µM [inhibitor, single point]	–
CCOc1ccc(-n2c(Cc3ccccc3)nnc2SCc2nc(-c3ccccc3C)no2)cc1	–	inactive: -4.59%
O=C(CSc1nc(-c2cccs2)cc(C(F)(F)F)n1)Nc1cc(OCC(F)(F)F)cc([N+](=O)[O-])c1	–	inactive: -7.38%
COc1cc2ccccc2cc1C(=O)Nc1nnc(-c2ccncc2)o1	inconclusive: 89.1 µM [inhibitor, single point]	–
Cc1ccccc1CSc1cn(CCNC(=O)c2cccs2)c2ccccc12	inconclusive: 89.1 µM [inhibitor, single point]	–
COC(=O)c1ccc(C2Nc3c(C)cc(C)cc3C3C=CCC32)cc1 (configuration not stated)	active: 79.4 µM	–
c1ccc(-c2ccccc2OCCCN2CCCC2)cc1	inconclusive: 89.1 µM [inhibitor, single point]	–
Cc1ccc2c(c1)C(=O)C(=O)N2CCOc1ccccc1	inconclusive: 39.8 µM [inhibitor, partial curve]	–
COc1cc(C(CC(=O)N2CCCC2)c2c(OC)cc(OC)c3c(-c4ccccc4)cc(=O)oc23)cc(OC)c1OC (configuration not stated)	active: 50.1 µM	–
CN1C(=O)Cc2cc(S(=O)(=O)NCc3cccs3)ccc21	inconclusive: 89.1 µM [inhibitor, single point]	–
O=C(O)C(c1ccccc1)N1C(=O)/C(=C/c2cccs2)SC1=S (configuration not stated)	–	inactive: -9.66%
COc1cccc(CNC2CCCCCCC2)c1OC	inconclusive: 89.1 µM [inhibitor, single point]	–
COCc1c(Br)c(C)nc2sc3c(=O)[nH]nnc3c12	active: 56.2 µM	–
O=C(NCCSc1ncc(-c2ccc(F)cc2)[nH]1)c1ccc2c(c1)OCO2	inconclusive: 50.1 µM [inhibitor, partial curve]	–
CCOc1ccc(CC(=O)Nc2c(C(=O)c3ccc(F)cc3)oc3ccccc23)cc1OCC	–	inactive: -14%
CCOc1c(Br)cc(C(N)=O)cc1OCc1ccccc1	inconclusive: 79.4 µM [inhibitor, partial curve]	–
